Experimental data reported in PubChem BioAssay AID1346428 (National Center for Advancing Translational Sciences (NCATS), 2018).
Screen size: about 48,000 compounds; about 1,200 (2.5%) were called active. Roughly 2% stayed inconclusive and do not appear here.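 How the source made its calls: active means activation of at least 60% and not above a set upper limit (about 1 call in 100 departs from these limits); inconclusive means activation of 40% to 60%, or above that upper limit; inactive means activation under 40%.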 The list shows a part of the results.

biological target: Probable G-protein coupled receptor 32 (Homo sapiens) (UniProt O75388); assay: qHTS for Agonists of Human Resolvin D1 Receptor DRV1; details: CHO-K1 GPR32 beta-arrestin PathHunter luminescence, 90 min; at 76.9 µM; active compounds read high; zero percent set by DMSO-only wells; further: 0% is about no effect
How it was run: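 PathHunter enzyme-fragment complementation, CHO-K1 GPR32 stable line; 2,500 cells/well, overnight attach; cpd 90 min 37 °C 5% CO2; detection reagent 1 h RT; chemiluminescence. DMSO = EC0.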

Sequence of UniProt O75388 (O75388 whole entry, looked up, the tested form may be a part): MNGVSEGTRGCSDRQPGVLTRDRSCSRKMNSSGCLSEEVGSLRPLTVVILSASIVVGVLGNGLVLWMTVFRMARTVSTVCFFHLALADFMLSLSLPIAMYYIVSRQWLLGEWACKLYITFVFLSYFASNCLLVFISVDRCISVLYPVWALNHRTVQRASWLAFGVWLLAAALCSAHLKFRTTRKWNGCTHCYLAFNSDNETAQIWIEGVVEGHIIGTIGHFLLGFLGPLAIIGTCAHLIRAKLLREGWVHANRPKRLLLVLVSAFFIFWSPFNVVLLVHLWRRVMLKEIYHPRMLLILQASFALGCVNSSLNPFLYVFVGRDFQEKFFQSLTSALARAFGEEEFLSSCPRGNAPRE

activation, inactive:
CCOc1ccccc1NS(=O)(=O)c1cnc(N)nc1 -13.8%
COc1ccc(CCNC(=O)C(=O)NCC(c2ccco2)S(=O)(=O)c2ccccc2)cc1OC (stereo not given) -7.03%
COc1ccc(CCNC(=O)CS(=O)Cc2nc(-c3ccc(C)cc3)oc2C)c(OC)c1 (stereo not given) -10.3%
O=C(Cn1c(=O)nc(-c2ccccc2)c2ccccc21)NCCCc1ccccc1 23.1%
CCc1cccc(NCc2ccccc2-c2nnc(-c3ccccc3Cl)o2)c1 -18%
CCCC12CN3CC(C)(CN(C1)C3c1cn(C)c3ccccc13)C2=O (stereo not given) -0.244%
CCn1c(CN2CCOCC2)nc2cc(NC(=O)c3cc(OC)c(OC)c(OC)c3)ccc21 -19%
NCCCC(O)(P(=O)(O)O)P(=O)(O)O 5.74%
CC(=O)c1ccc(NC(=O)C2CCC(CNS(=O)(=O)c3ccc4c(c3)CCCC(=O)N4)CC2)cc1 (stereo not given) 8.98%
COc1ccccc1N1CCN(C(=O)Cc2c(C(=O)O)c(C)cn2C)CC1 -5.22%
COc1ccc(-c2cc(C(=O)NCc3ccccc3)c3c(-c4ccccc4)[nH]nc3n2)cc1 1.75%
CC1CCN(C(=O)Cn2ncc3c4ccccc4n(Cc4ccc(Cl)cc4)c3c2=O)CC1 -12.8%
CC(=O)c1ccc(NC(=O)c2cc(-c3ccc(Cl)c(Cl)c3)on2)cc1 9.47%
CCc1ccccc1NC(=O)C1CCCN(c2nnc(-n3c(C)ccc3C)s2)C1 (stereo not given) -22%
Cc1ccc2nc(N3CCN(c4cccc(C)c4C)CC3)c3nnnn3c2c1 -16.8%
COc1ccccc1CNC(=O)c1cccc(Nc2nc3ccccc3n3nnnc23)c1 -8.33%
CCC1CN(C(=O)N2CCC(C(=O)NCc3cccs3)CC2)c2cc(C)ccc2O1 (stereo not given) -6.04%
Cc1ccccc1Nc1c2c(nc3nncn13)CCC2 -7.05%
O=C(CC1(O)C(=O)N(CCc2ccccc2)c2ccc(Br)cc21)c1ccccc1O (stereo not given) -44.7%
CCOc1ccc(-c2cc(C(=O)NCc3ccccc3)c3c(-c4ccc(CC)cc4)[nH]nc3n2)cc1 -17.9%
O=C(COc1ccc(F)cc1)Nc1ccc2nc(SCc3ccccc3)sc2c1 0.107%
CCc1cccc(NC(=O)CSc2ncc3c(n2)-c2ccccc2N(Cc2ccccc2C)S3(=O)=O)c1 -3.83%
CC(C)(C)C(=O)Nc1c(C(=O)N2CCN(c3ccc(F)cc3)CC2)oc2ccccc12 -0.0327%
COc1ccc(NC(=O)Cc2csc(C)n2)cc1 -5.89%
CC(=O)c1ccc(NC(=O)NCCc2c[nH]c3ccccc23)cc1 2.28%
Oc1ccc(CCNCCCCCCNCCc2ccccc2)cc1O -3.84%
CC(C)c1nn2c(=O)cc(COC(=O)c3ccc(NC(=O)CCc4ccccc4)cc3)nc2s1 -10.9%
Cc1cccc(NC(=O)CSc2nnc(CNC(=O)c3c(F)cccc3Cl)o2)c1C -2.17%
CCOC(=O)C1CCN(S(=O)(=O)c2cc(-c3cc(C)no3)ccc2C)CC1 -16.4%
Cc1cccc(-c2nc3scc(CCNC(=O)c4ccccc4Cl)n3n2)c1 -21.1%
CCCCCn1c(=O)[nH]c2cc(C(=O)Nc3ccc(F)cc3)ccc2c1=O 3.88%
CC1CCN(CCNC(=O)c2ccc(Cn3c(SCc4ccccc4)nc4cccnc43)cc2)CC1 -16.4%
CCN(c1ccc(Cl)cc1)S(=O)(=O)c1nnc(NC(=O)C(C)C)s1 -8.83%
CCC(=O)Oc1ccc(-c2nc3ccccc3c(=O)o2)cc1 38.8%
O=C1C(c2[nH]c3ccccc3c2O)=Nc2ccccc21 -35%
CN1CCC(Nc2ncc3ncnc(Nc4ccc(F)c(Cl)c4)c3n2)CC1 24.1%
CCOC(=O)c1ccccc1NC(=O)Cn1c(=O)n(Cc2ccccc2)c(=O)c2c(C)c(C)sc21 -1.27%
CC(C)(C)OC(=O)N1CCC(c2c(C(=O)NCc3ccco3)cnn2-c2ccc(F)cc2)CC1 -3.53%
Cc1ccc(-n2ncc(C(=O)N3CCN(Cc4ccccc4)CC3)c2C2CCN(C(=O)OC(C)(C)C)CC2)c(C)c1 -6.55%
CCCCCCCCCC[Si](C)(C)CCC(=O)NC(Cc1ccc(C)cc1)c1ccccc1 (stereo not given) 4.48%
Cc1ccc(C)c(S(=O)(=O)c2nnn3c2nc(NCc2ccc4c(c2)OCO4)c2sccc23)c1 -8.37%
CN(C)c1ccc(NC(=O)Cn2c(SCc3ccccc3F)nc3cccnc32)cc1 27.5%
O=c1c2sc3ccccc3c2n(Cc2ccccc2F)c(=O)n1CCc1ccccc1 -2.03%
CN(C)c1ccc(C(CNS(=O)(=O)c2ccc(Br)cc2)N2CCOCC2)cc1 (stereo not given) -28.2%
COc1ccc(-c2nnc(SCC(=O)Nc3ccc(F)cc3)s2)cc1 9%
CCc1ccc(-c2ccc(C(=O)Oc3ccc(Br)cc3)cc2)nc1 12.3%
O=C(c1ccc2c(Cl)c3c(nc2c1)CCCC3)N1CCN(c2cccc(Cl)c2)CC1 -11.1%
Cc1cccc(N2C(=O)CCSC23C(=O)N(Cc2ccc(F)cc2)c2ccccc23)c1 (stereo not given) -28.7%
Cc1ccc(-c2c(C(=O)NCCc3ccc(Cl)cc3)oc(=O)c3ccccc23)cc1 -6.26%
Cc1c(C)n(C)c2ccc(C(=O)NCCCN3CCCCC3)cc12 -12.5%
COc1ccc(NC(=O)C2=C(C)Nc3nc(SCc4ccccc4)nn3C2c2cc(OC)ccc2OC)cc1 (stereo not given) 3.49%
Cc1ccc(Cn2ccc(NC(=O)c3cc(-c4ccc(Cl)c(Cl)c4)on3)n2)cc1 -2.1%
COCCc1nn2c(=O)cc(COC(=O)c3ccc(C(C)(C)C)cc3)nc2s1 8.05%
Cc1nnc(SCC(=O)NCc2ccccc2F)c2nn(-c3ccc(Cl)cc3)c(C)c12 -8.36%
Cc1ccc(-c2nc(SCc3ccc(Br)cc3)n3[nH]c(=O)cc3n2)cc1 0.837%
Cc1ccc(S(=O)(=O)c2nc(-c3ccc(Cl)cc3)oc2N2CCCCCC2)cc1 -32.5%
CCN(CC)S(=O)(=O)c1ccc(C(=O)N=c2sc3cccc(OC)c3n2C)cc1 8.08%
COc1ccc(CNc2ncnc3c2c(-c2ccccc2)cn3-c2ccccc2)cc1 -11.6%
CCOC(=O)c1ccc(NC(=O)Cc2ccc(-n3c(CC)nc4cccnc43)cc2)cc1 -9.4%
COc1ccc(CNC(=O)CCCc2cn(C)c3ccccc23)c(OC)c1 -21.4%
Oc1ccc(Cl)cc1Nc1nc2ccccc2n2cnnc12 -6.62%
COc1ccccc1N(Cc1cc2cccc(C)c2[nH]c1=O)C(=O)c1cccc(Cl)c1 1.41%
COc1ccc(NC(=O)Cn2nnc(C(=O)NCc3ccccc3Cl)c2N)cc1Cl 10.6%
COc1ccc(CCn2c3c(c(=O)[nH]c2=O)C(NC(=O)c2ccccc2)(C(F)(F)F)C(=O)N3)cc1OC (stereo not given) 3.33%
O=C(CCS(=O)(=O)c1ccc2c(c1)NC(=O)CO2)Nc1cccc(C(F)(F)F)c1 13.3%
CCNC(=O)CC1C(=O)N(c2ccc(C)cc2)C(=O)N1Cc1ccc(C)cc1 (stereo not given) 8.52%
NC(=O)c1cc(S(=O)(=O)N2CCCCC2)cs1 -6.31%
CCn1cc(S(=O)(=O)c2cc(C)cc(C)c2)c(=O)c2cc(F)c(N3CCC(C)CC3)cc21 -13%
Cc1ccc2nc(-c3ccc(C)c(NC(=O)CSc4ccc(Cl)cc4)c3)oc2c1 0.42%
COCc1nc2c([nH]1)c(=O)n(C)c(=O)n2CC(C)C -0.149%
CCOc1ccc(N(C(=O)c2ccc(C)cc2)S(=O)(=O)c2ccc3c(c2)n(C)c(=O)n3C)cc1 -1.56%
Cc1ccc(Cl)cc1N1CCN(C(=O)Cn2cnc3nc4c(cc3c2=O)CCCC4)CC1 -4.2%
Cc1ccc(C)n1-c1nnc(N2CCCC(C(=O)NCc3ccc(F)cc3)C2)s1 (stereo not given) 15.4%
O=C(NCc1ccc(Cl)cc1)c1cc2ccccc2o1 -14.5%
Cc1ccc2cccc(NC(=O)c3ccc(-c4cc(Cl)ccc4Cl)o3)c2n1 -5.14%
O=C(NCc1cccc(Br)c1)c1cccn1-c1nnc(N2CCCCC2)s1 1.25%
CCN(CC)C(=O)Cn1c(=O)n(CCCCCC(=O)NCc2ccccc2Cl)c(=O)c2sccc21 -11.5%
COc1ccc(OC)c(NC(=O)c2ccc3c(c2)c(C)c(C)n3Cc2ccc(F)cc2)c1 -17.1%
Cc1ccc(CCNc2nc3c(S(=O)(=O)c4ccc(C)cc4)nnn3c3ccsc23)cc1 -12%
CC(C)c1ccc(NC(=O)c2ccc(NC(=O)CCS(=O)(=O)c3cccs3)cc2)cc1 8.5%
Cc1ccc(-n2ncc3c(NCCCc4ccccc4)ncnc32)cc1C -4.22%
COc1cc(CNC(=O)c2cc3n(n2)CCCN(Cc2ccc(C)cc2)C3=O)cc(OC)c1OC -4.82%
Cc1c(NC(=O)c2sc3c([N+](=O)[O-])cccc3c2Cl)cccc1-c1nc2ccccc2o1 10%

activation, active:
CCc1cccc(C)c1NC(=O)CSc1nnc(N)s1 93.6%
O=C(CC(c1ccccc1)c1cc(Br)ccc1O)NCC1(c2ccccc2)CCCC1 (stereo not given) 108%
